In the supplement of paper PMC12217912:
The list shows a part of the results. Sequences were assembled here from the parent chain. Values near 0.05 are background.

B1: TEV protease; numbered along this chain (parent)
chain: MGESLFKGPRDYNPISSSICHLTNESDGHTTSLYGIGFGPFIITNKHLFRRNNGTLVVQSLHGVFKVKDTTTLQQHLVDGRDMIIIRMPKDFPPFPQKLKFREPQREERICLVTTNFQTKSMSSMVSDTSCTFPSGDGIFWKHWIQTKDGQCGSPLVSTRDGFIVGIHSASNFTNTNNYFTSVPKNFMELLTNQEAQQWVSGWRLNADSVLWGGHKVFMVKPEEPFQPVKEATQL

Variants of: B1
Test: raw area under fraction-flipped curve 0-4 h after induction (AUC4h, not background-subtracted), DNA-recorder readout of cleavage of the substrate (dimensionless); higher = more cleavage of the substrate by the protease variant
Details: temperature: 34 °C; time window: 0-4 h after rhamnose induction
Protocol: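 In vivo DNA recorder in E. coli TOP10(DE3) ΔrhaA at 34 °C. Each TEVp single-site mutant (parent TEVp 0) is paired with a single-site variant of the 7-mer TEVs (canonical ENLYFQ|S). The substrate sits between flexible linkers in a Bxb1-sfGFP-TEVs-SsrA fusion, so cleavage stabilises Bxb1 and speeds flipping of a recombination array, read by NGS. The value is the raw area under the fraction-flipped curve over 0-4 h after rhamnose induction (AUC4h), with ≥20 reads per time point. It is not background-subtracted; inactive controls average about 0.047.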
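Note: Bxb1 expression induced with 0.2% (w/v) L-rhamnose at OD600 near 0.5, cultures sampled hourly, flipped fraction per protease–substrate barcode pair counted by paired-end Illumina sequencing.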

| Variant | area with substrate ENLYFCS | area with substrate ENLYFES | area with substrate ENLYFFS | area with substrate ENLYFIS | area with substrate ENLYFKS | area with substrate ENLYFLS | area with substrate ENLYFMS | area with substrate ENLYFNS | area with substrate ENLYFPS | area with substrate ENLYFRS | area with substrate ENLYFSS | area with substrate ENLYFTS | area with substrate ENLYFVS | area with substrate ENLYFYS | area with substrate ENLYFWS | area with substrate ENLYFGS | area with substrate ENLYFDS | area with substrate ENLYFHS |
| --- | --- | --- | --- | --- | --- | --- | --- | --- | --- | --- | --- | --- | --- | --- | --- | --- | --- | --- |
| MGESLFKGPRDYNPISSSICHLTNESDGHTTSLYGIGFGPFIITNKHLFRRDNGTLVVQSLHGVFKVKDTTTLQQHLVDGRDMIIIRMPKDFPPFPQKLKFREPQREERICLVTTNFQTKSMSSMVSDTSCTFPSGDGIFWKHWIQTKDGQCGSPLVSTRDGFIVGIHSASNFTNTNNYFTSVPKNFMELLTNQEAQQWVSGWRLNADSVLWGGHKVFMVKPEEPFQPVKEATQL [N52D] | 0.0558 | 0.0723 | 0.0707 | 0.0546 | 0.0577 | 0.0485 | 0.0668 | 0.065 | 0.0588 | 0.0498 | 0.0877 | 0.0747 | 0.0429 | 0.0584 | – | – | – | – |
| MGESLFKGPRDYNPISSSICHLTNESDGHTTSLYGIGFGPFIITNKHLFRRKNGTLVVQSLHGVFKVKDTTTLQQHLVDGRDMIIIRMPKDFPPFPQKLKFREPQREERICLVTTNFQTKSMSSMVSDTSCTFPSGDGIFWKHWIQTKDGQCGSPLVSTRDGFIVGIHSASNFTNTNNYFTSVPKNFMELLTNQEAQQWVSGWRLNADSVLWGGHKVFMVKPEEPFQPVKEATQL [N52K] | 0.0616 | 0.0578 | 0.0636 | 0.0623 | 0.0514 | – | 0.0571 | 0.0732 | 0.059 | 0.0627 | 0.0675 | – | – | – | 0.0666 | – | – | – |
| MGESLFKGPRDYNPISSSICHLTNESDGHTTSLYGIGFGPFIITNKHLFRRNNGFLVVQSLHGVFKVKDTTTLQQHLVDGRDMIIIRMPKDFPPFPQKLKFREPQREERICLVTTNFQTKSMSSMVSDTSCTFPSGDGIFWKHWIQTKDGQCGSPLVSTRDGFIVGIHSASNFTNTNNYFTSVPKNFMELLTNQEAQQWVSGWRLNADSVLWGGHKVFMVKPEEPFQPVKEATQL [T55F] | 0.0553 | – | 0.0651 | 0.0563 | 0.06 | – | 0.064 | 0.04 | 0.048 | 0.0539 | 0.0582 | – | 0.06 | 0.0528 | – | 0.0641 | – | – |
| MGESLFKGPRDYNPISSSICHLTNESDGHTTSLYGIGFGPFIITNKHLFRRNNGTEVVQSLHGVFKVKDTTTLQQHLVDGRDMIIIRMPKDFPPFPQKLKFREPQREERICLVTTNFQTKSMSSMVSDTSCTFPSGDGIFWKHWIQTKDGQCGSPLVSTRDGFIVGIHSASNFTNTNNYFTSVPKNFMELLTNQEAQQWVSGWRLNADSVLWGGHKVFMVKPEEPFQPVKEATQL [L56E] | 0.0471 | 0.046 | 0.0474 | 0.0484 | 0.0464 | – | 0.0581 | 0.0442 | 0.0507 | 0.0531 | – | – | – | 0.0204 | – | 0.0479 | 0.0424 | 0.0428 |
| MGESLFKGPRDYNPISSSICHLTNESDGHTTSLYGIGFGPFIITNKHLFRRNNGTLVVQSLHHVFKVKDTTTLQQHLVDGRDMIIIRMPKDFPPFPQKLKFREPQREERICLVTTNFQTKSMSSMVSDTSCTFPSGDGIFWKHWIQTKDGQCGSPLVSTRDGFIVGIHSASNFTNTNNYFTSVPKNFMELLTNQEAQQWVSGWRLNADSVLWGGHKVFMVKPEEPFQPVKEATQL [G63H] | 0.0571 | 0.0574 | – | 0.0537 | – | – | – | – | 0.0628 | – | 0.0534 | 0.0508 | 0.0485 | – | – | 0.0605 | 0.0452 | 0.0515 |
| MGESLFKGPRDYNPISSSICHLTNESDGHTTSLYGIGFGPFIITNKHLFRRNNGTLVVQSLHGVFKCKDTTTLQQHLVDGRDMIIIRMPKDFPPFPQKLKFREPQREERICLVTTNFQTKSMSSMVSDTSCTFPSGDGIFWKHWIQTKDGQCGSPLVSTRDGFIVGIHSASNFTNTNNYFTSVPKNFMELLTNQEAQQWVSGWRLNADSVLWGGHKVFMVKPEEPFQPVKEATQL [V67C] | 0.0424 | 0.0814 | 0.0608 | 0.0603 | 0.0692 | – | 0.0692 | 0.0654 | 0.0585 | 0.0601 | – | 0.0619 | – | 0.0586 | – | – | 0.0563 | 0.0571 |
| MGESLFKGPRDYNPISSSICHLTNESDGHTTSLYGIGFGPFIITNKHLFRRNNGTLVVQSLHGVFKVVDTTTLQQHLVDGRDMIIIRMPKDFPPFPQKLKFREPQREERICLVTTNFQTKSMSSMVSDTSCTFPSGDGIFWKHWIQTKDGQCGSPLVSTRDGFIVGIHSASNFTNTNNYFTSVPKNFMELLTNQEAQQWVSGWRLNADSVLWGGHKVFMVKPEEPFQPVKEATQL [K68V] | 0.0591 | – | 0.0493 | 0.0342 | 0.0796 | 0.053 | 0.0798 | – | 0.0577 | 0.0715 | 0.0619 | 0.068 | – | – | 0.0592 | 0.0538 | – | – |
| MGESLFKGPRDYNPISSSICHLTNESDGHTTSLYGIGFGPFIITNKHLFRRNNGTLVVQSLHGVFKVKNTTTLQQHLVDGRDMIIIRMPKDFPPFPQKLKFREPQREERICLVTTNFQTKSMSSMVSDTSCTFPSGDGIFWKHWIQTKDGQCGSPLVSTRDGFIVGIHSASNFTNTNNYFTSVPKNFMELLTNQEAQQWVSGWRLNADSVLWGGHKVFMVKPEEPFQPVKEATQL [D69N] | 0.0527 | – | 0.0585 | 0.0672 | – | – | – | – | 0.06 | – | – | – | 0.0445 | – | – | – | 0.0515 | 0.0573 |
| MGESLFKGPRDYNPISSSICHLTNESDGHTTSLYGIGFGPFIITNKHLFRRNNGTLVVQSLHGVFKVKDTTTLQQHLVDGKDMIIIRMPKDFPPFPQKLKFREPQREERICLVTTNFQTKSMSSMVSDTSCTFPSGDGIFWKHWIQTKDGQCGSPLVSTRDGFIVGIHSASNFTNTNNYFTSVPKNFMELLTNQEAQQWVSGWRLNADSVLWGGHKVFMVKPEEPFQPVKEATQL [R81K] | 0.0504 | – | – | 0.0729 | – | 0.0625 | – | 0.0709 | 0.0652 | – | 0.0461 | – | 0.0543 | – | 0.0619 | 0.0594 | – | – |
| MGESLFKGPRDYNPISSSICHLTNESDGHTTSLYGIGFGPFIITNKHLFRRNNGTLVVQSLHGVFKVKDTTTLQQHLVDGRDMFIIRMPKDFPPFPQKLKFREPQREERICLVTTNFQTKSMSSMVSDTSCTFPSGDGIFWKHWIQTKDGQCGSPLVSTRDGFIVGIHSASNFTNTNNYFTSVPKNFMELLTNQEAQQWVSGWRLNADSVLWGGHKVFMVKPEEPFQPVKEATQL [I84F] | 0.0478 | – | 0.0579 | 0.059 | – | – | – | 0.0444 | 0.0506 | 0.0498 | 0.0567 | 0.0423 | 0.0534 | – | 0.0565 | – | – | – |
